Common to all, as to experiment: universal protein binding microarray (PBM)
Common to all, as to conditions: transcription factors of Arabidopsis thaliana; high values mean tight binding; most listed sequences are background and not binding sites; double strand, one strand shown

One test deals with T1, GST-ANAC092(1-176) (UniProt Q9FKA0).
T1 sequence: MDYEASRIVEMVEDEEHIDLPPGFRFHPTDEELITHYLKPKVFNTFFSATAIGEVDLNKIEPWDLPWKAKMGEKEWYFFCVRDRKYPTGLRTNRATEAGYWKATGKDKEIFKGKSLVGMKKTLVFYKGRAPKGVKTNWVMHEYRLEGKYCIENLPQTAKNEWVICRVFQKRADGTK

A further test deals with GST-NTL6(1-168) (UniProt Q9SCK6).
The target of a further test is T2, GST-ANAC019 NAC domain (UniProt Q9C932).
T2 sequence: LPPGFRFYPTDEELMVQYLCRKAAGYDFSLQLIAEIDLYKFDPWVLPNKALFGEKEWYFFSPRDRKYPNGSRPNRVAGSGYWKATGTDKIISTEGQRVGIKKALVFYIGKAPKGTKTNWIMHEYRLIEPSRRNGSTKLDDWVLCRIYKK

A further test has as its target T3, GST-ANAC055(1-171) (UniProt Q9LDY8).
T3 sequence: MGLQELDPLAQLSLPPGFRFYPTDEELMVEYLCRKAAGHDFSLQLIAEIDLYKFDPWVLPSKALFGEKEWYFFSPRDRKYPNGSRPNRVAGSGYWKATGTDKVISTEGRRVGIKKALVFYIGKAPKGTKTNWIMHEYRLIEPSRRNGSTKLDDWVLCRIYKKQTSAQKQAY

In a further test the target is T4, GST-ATAF1 NAC domain (UniProt Q39013).
T4 sequence: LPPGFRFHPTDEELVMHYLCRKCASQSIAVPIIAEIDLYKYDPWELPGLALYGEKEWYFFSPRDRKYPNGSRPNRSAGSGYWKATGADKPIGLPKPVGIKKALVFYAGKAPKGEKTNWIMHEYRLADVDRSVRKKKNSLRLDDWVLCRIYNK

Test [1] concerns the target T5, GST-ANAC092(1-285) full length (UniProt Q9FKA0).
T5 sequence: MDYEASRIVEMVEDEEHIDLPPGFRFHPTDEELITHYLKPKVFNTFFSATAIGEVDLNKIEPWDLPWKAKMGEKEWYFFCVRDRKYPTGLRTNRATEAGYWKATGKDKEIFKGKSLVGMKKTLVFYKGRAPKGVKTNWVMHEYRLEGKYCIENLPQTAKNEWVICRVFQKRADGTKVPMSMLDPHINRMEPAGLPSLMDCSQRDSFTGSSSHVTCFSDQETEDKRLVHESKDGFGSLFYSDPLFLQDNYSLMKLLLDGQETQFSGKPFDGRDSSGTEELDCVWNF

The target in the next test is T6, GST-NAP(1-166) (UniProt O49255).
T6 sequence: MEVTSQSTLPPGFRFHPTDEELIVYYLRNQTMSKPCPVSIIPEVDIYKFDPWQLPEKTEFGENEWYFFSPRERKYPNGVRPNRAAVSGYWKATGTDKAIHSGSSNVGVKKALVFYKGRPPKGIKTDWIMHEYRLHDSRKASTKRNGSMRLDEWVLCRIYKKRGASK

For a further test, the target named is T7, GST-NST2(1-184) (UniProt Q9M274).
T7 sequence: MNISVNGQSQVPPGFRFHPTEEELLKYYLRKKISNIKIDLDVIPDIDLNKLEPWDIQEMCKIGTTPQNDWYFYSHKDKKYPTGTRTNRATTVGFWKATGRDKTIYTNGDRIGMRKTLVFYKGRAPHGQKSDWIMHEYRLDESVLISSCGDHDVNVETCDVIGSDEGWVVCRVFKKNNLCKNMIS

The next test deals with T8, GST-NTL8 NAC domain (UniProt Q9XIN7).
T8 sequence: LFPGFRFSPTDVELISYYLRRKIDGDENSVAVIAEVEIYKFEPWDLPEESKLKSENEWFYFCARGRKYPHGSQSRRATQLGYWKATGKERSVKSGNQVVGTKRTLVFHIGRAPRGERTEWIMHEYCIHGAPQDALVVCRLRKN

The target in another test is T9, GST-SND1(1-203) (UniProt Q9LPI7).
T9 sequence: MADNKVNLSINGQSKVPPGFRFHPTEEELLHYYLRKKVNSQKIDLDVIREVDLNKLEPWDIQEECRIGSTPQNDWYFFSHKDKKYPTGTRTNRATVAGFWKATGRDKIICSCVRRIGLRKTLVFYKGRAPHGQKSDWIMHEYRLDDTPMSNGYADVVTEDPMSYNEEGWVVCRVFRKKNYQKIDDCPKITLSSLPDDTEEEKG

The target of another test is T10, GST-VND3 NAC domain (UniProt Q9FH59).
T10 sequence: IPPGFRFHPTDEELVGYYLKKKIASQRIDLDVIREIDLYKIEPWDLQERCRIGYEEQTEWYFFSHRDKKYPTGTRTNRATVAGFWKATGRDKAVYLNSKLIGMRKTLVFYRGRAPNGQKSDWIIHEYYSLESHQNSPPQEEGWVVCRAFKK

The target of another test is T11, GST-VND7 NAC domain (UniProt Q9C8W9).
T11 sequence: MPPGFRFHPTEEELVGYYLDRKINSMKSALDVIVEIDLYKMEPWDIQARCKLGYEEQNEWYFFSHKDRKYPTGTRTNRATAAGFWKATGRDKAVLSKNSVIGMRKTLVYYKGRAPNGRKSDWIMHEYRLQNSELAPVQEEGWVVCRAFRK

Test [2] has as its target T12, GST-VOZ2 (Arabidopsis thaliana) (UniProt Q9SLB9).
T12 sequence: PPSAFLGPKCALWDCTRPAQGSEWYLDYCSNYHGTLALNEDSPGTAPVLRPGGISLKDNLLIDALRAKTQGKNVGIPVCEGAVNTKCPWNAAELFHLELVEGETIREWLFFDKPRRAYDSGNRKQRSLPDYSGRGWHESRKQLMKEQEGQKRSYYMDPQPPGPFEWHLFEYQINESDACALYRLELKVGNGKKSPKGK

The target of the next test is GST-WRKY1(266-371) (UniProt Q9SI37).

The list shows a part of the results, in another mix than the full data. For part of these data: At the low end of the ranking the order means little. This is one part of the list. For part of these data: The source does not settle which construct or isoform was used.

UniProt Q9SCK6, sequence (Q9SCK6 1-168): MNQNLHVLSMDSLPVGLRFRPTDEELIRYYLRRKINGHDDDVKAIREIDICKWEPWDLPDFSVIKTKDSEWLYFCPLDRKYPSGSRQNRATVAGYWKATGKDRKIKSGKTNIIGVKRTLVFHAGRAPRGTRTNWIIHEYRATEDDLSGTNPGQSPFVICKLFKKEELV
GST-WRKY1(266-371), sequence (Q9SI37 266-371, chain 1 of 2): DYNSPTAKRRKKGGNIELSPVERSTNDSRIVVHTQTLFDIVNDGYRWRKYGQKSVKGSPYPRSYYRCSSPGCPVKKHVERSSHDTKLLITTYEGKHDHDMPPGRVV

With CGGTCAGC, the binding signal was -0.0591 E-score with GST-ANAC092(1-176); -0.119 E-score in the test with GST-NTL6(1-168); 0.00652 E-score with GST-ANAC019 NAC domain; -0.16 E-score with GST-ANAC055(1-171); -0.128 E-score with GST-ATAF1 NAC domain; -0.0896 E-score in test [1]. Moreover, the binding signal with GST-NAP(1-166) was -0.132 E-score; with GST-NST2(1-184), -0.0635 E-score; with GST-NTL8 NAC domain, -0.0711 E-score; with GST-SND1(1-203) it was -0.152 E-score; with GST-VND3 NAC domain it was -0.119 E-score; in the test with GST-VND7 NAC domain, -0.0254 E-score. For the same sequence, the binding signal in [2] was -0.00245 E-score; with GST-WRKY1(266-371), 0.458 E-score.

Take AGGGGTCA: the binding signal with GST-ANAC092(1-176) is -0.114 E-score; in the test with GST-NTL6(1-168), 0.0129 E-score; in the test with GST-ANAC019 NAC domain, -0.094 E-score; with GST-ANAC055(1-171), -0.17 E-score; with GST-ATAF1 NAC domain it was -0.188 E-score; in [1] it was -0.00792 E-score. Moreover, the binding signal was -0.0564 E-score in the test with GST-NAP(1-166); -0.191 E-score in the test with GST-NST2(1-184); 0.0266 E-score in the test with GST-NTL8 NAC domain; -0.042 E-score with GST-SND1(1-203); -0.0713 E-score in the test with GST-VND3 NAC domain; -0.188 E-score in the test with GST-VND7 NAC domain. The binding signal in test [2] worked out at 0.0777 E-score; with GST-WRKY1(266-371), 0.415 E-score.

ATGACCGA: the binding signal was -0.23 E-score with GST-ANAC092(1-176); -0.0888 E-score in the test with GST-NTL6(1-168); -0.133 E-score with GST-ANAC019 NAC domain; -0.082 E-score with GST-ANAC055(1-171); -0.174 E-score in the test with GST-ATAF1 NAC domain; -0.119 E-score in test [1]. Besides, the binding signal with GST-NAP(1-166) is 0.0175 E-score; with GST-NST2(1-184), -0.0516 E-score; with GST-NTL8 NAC domain, -0.021 E-score; in the test with GST-SND1(1-203) it was -0.107 E-score; with GST-VND3 NAC domain, -0.0852 E-score; with GST-VND7 NAC domain it was -0.171 E-score. Besides, the binding signal is -0.078 E-score in [2] and 0.405 E-score in the test with GST-WRKY1(266-371).

For CAGTTGAC, the binding signal in the test with GST-ANAC092(1-176) is 0.00432 E-score; in the test with GST-NTL6(1-168), -0.0477 E-score; in the test with GST-ANAC019 NAC domain, 0.135 E-score; with GST-ATAF1 NAC domain, 0.112 E-score; in [1], -0.113 E-score; with GST-NAP(1-166), 0.0525 E-score. The binding signal in the test with GST-NST2(1-184) is 0.0574 E-score; in the test with GST-NTL8 NAC domain, -0.0966 E-score; in the test with GST-SND1(1-203) it was -0.0327 E-score; in the test with GST-VND3 NAC domain it was -0.0214 E-score; in the test with GST-VND7 NAC domain, 0.0244 E-score; in [2], 0.0545 E-score. The same sequence had a binding signal in the test with GST-WRKY1(266-371) of 0.477 E-score.

As to ACCGGTCA, the binding signal is -0.145 E-score with GST-ANAC092(1-176); -0.104 E-score with GST-NTL6(1-168); -0.06 E-score with GST-ANAC019 NAC domain; -0.112 E-score with GST-ANAC055(1-171); -0.0819 E-score with GST-ATAF1 NAC domain; -0.167 E-score in test [1]. Further, the binding signal in the test with GST-NAP(1-166) is -0.042 E-score; in the test with GST-NST2(1-184) it was -0.0935 E-score; with GST-NTL8 NAC domain, -0.0124 E-score; in the test with GST-SND1(1-203) it was -0.0794 E-score; with GST-VND3 NAC domain, -0.0851 E-score; with GST-VND7 NAC domain, -0.0892 E-score. Also, the binding signal in [2] is -0.0894 E-score; with GST-WRKY1(266-371) it was 0.463 E-score.

These data come from article PMC4081100.
